The values that follow come from patent publication US20190127468A1 (ONCOIMMUNE, published 2019).

The target in experiment [1] is T1, human B7-1 Fc fusion protein (human, UniProt P33681 35-242).
T1 construct: also called B7-1 Ig; B7-1 Ig fusion protein; not shown: Fc portion, not described
T1 sequence (looked up): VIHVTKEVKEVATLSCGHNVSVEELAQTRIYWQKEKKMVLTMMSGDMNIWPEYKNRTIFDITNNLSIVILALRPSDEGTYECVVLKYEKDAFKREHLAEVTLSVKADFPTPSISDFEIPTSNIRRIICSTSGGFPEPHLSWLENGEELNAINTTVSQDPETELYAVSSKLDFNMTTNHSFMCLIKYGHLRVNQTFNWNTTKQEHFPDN
Put plainly: ELISA, plate-coated WT CTLA-4Fc, biotinylated protein.

Experiment [2] deals with T1, human B7-1 Fc fusion protein. Put plainly: ELISA, plate-coated CTLA-4Fc mutant, biotinylated B7-1 Ig.

B1: WT human CTLA-4Fc protein (Fc fusion)
chain: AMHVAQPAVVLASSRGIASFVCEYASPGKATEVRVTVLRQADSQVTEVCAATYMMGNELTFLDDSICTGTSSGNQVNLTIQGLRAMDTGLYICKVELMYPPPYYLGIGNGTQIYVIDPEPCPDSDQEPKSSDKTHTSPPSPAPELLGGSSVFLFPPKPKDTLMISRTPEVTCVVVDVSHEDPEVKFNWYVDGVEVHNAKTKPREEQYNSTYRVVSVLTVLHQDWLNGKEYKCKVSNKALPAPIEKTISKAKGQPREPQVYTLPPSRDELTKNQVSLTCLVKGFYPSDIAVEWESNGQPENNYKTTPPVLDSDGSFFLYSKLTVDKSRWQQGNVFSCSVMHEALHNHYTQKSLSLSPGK
notes: Produced in HEK293, Protein A purified; also called CTLA-4Fc WT control; hCTLA4-Fc
For the molecule B1, the binding result in experiment [1] is reported as “binds”.

B2: CTLA-4Fc mutant M9 (Fc fusion)
chain: AMHVAQPAVVLASSRGIASFVCEYASPGKATEVRVTVLRQADSQVTEVCAATYMMGNELTFLDDSICTGTSSGNQVNLTIQGLRAMVDTGLYICKVELMYPPPYYLGIGNGTQIYVIDPEPCPDSDQ[left out - human IgG1 Fc with changes]
notes: also called Mutant 9
Take B2: the binding result in experiment [2] is listed as “no binding (tested: 1 ug/ml)”.

B3: CTLA-4Fc mutant M10 (Fc fusion)
chain: AMHVAQPAVVLASSRGIASFVCEYASPGKATEVRVTVLRQADSQVTEVCAATYMMGNELTFLDDSICTGTSSGNQVNLTIQGLRAMMDTGLYLCKVELMYPPPYYLGIGNGTQIYVIDPEPCPDSDQ[left out - human IgG1 Fc with changes]
notes: also called Mutant 10
As to B3, the binding result in experiment [2] is listed as “no binding (tested: 1 ug/ml)”.
